Measurements published in the supplement of paper PMC8728848.
The other results are listed elsewhere or left out.

What was measured:
Experiment in all cases: glycan array binding signal (z-score within array); higher = stronger binding
Details in all cases: glycan notation: IUPAC condensed, linker removed; mutation: R74S
[1] = target: Gal(b1-3)GlcNAc(b1-6)GalNAc
Summary of the method: (§1)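 Columns mapping to the same glycan were averaged after glycan names were converted to IUPAC-condensed notation. The data come from 3228 arrays in the Consortium for Functional Glycomics database, limited to those with an available protein sequence. Binding is reported as a within-array Z-score averaged across arrays of one protein sequence and across linkers.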

[2] = target: Gal(b1-3)GlcNAc(b1-6)[Gal(b1-3)]GalNAc
Summary of the method: as §1

Gal(b1-3)GlcNAc6S = target: Gal(b1-3)GlcNAc6S
Summary of the method: as §1

[3] = target: Gal(b1-3)[Fuc(a1-4)]GlcNAc
Summary of the method: as §1

[4] = target: Gal(b1-3)[Fuc(a1-4)]GlcNAc(b1-2)Man
Summary of the method: as §1

[5] = target: Gal(b1-3)[Fuc(a1-4)]GlcNAc(b1-2)Man(a1-3)[Gal(b1-3)[Fuc(a1-4)]GlcNAc(b1-2)Man(a1-6)]Man(b1-4)GlcNAc(b1-4)[Fuc(a1-6)]GlcNAc
Summary of the method: as §1

[6] = target: Gal(b1-3)[Fuc(a1-4)]GlcNAc(b1-3)Gal(b1-3)[Fuc(a1-4)]GlcNAc
Summary of the method: as §1

[7] = target: Gal(b1-3)[Fuc(a1-4)]GlcNAc(b1-3)Gal(b1-4)[Fuc(a1-3)]GlcNAc
Summary of the method: as §1

[8] = target: Gal(b1-3)[Fuc(a1-4)]GlcNAc(b1-6)GalNAc
Summary of the method: as §1

[9] = target: Gal(b1-3)[GlcNAc(b1-6)]GalNAc
Summary of the method: as §1

[10] = target: Gal(b1-3)[Neu5Ac(a2-6)]GalNAc
Summary of the method: as §1

[11] = target: Gal(b1-3)[Neu5Ac(a2-6)]GlcNAc(b1-4)Gal(b1-4)Glc
Summary of the method: as §1

[12] = target: Gal(b1-3)[Neu5Ac(b2-6)]GalNAc
Summary of the method: as §1

Gal(b1-4)Gal = target: Gal(b1-4)Gal
Summary of the method: as §1

[13] = target: Gal(b1-4)GalNAc(a1-3)[Fuc(a1-2)]Gal(b1-4)GlcNAc
Summary of the method: as §1

[14] = target: Gal(b1-4)GalNAc(b1-3)[Fuc(a1-2)]Gal(b1-4)GlcNAc
Summary of the method: as §1

Gal(b1-4)Glc = target: Gal(b1-4)Glc
Summary of the method: as §1

Gal(b1-4)Glc6S = target: Gal(b1-4)Glc6S
Summary of the method: as §1

Gal(b1-4)GlcNAc = target: Gal(b1-4)GlcNAc
Summary of the method: as §1

[15] = target: Gal(b1-4)GlcNAc(a1-6)Gal(b1-4)GlcNAc
Summary of the method: as §1

Gal(b1-4)GlcNAc(b1-2)Man = target: Gal(b1-4)GlcNAc(b1-2)Man
Summary of the method: as §1

[16] = target: Gal(b1-4)GlcNAc(b1-2)Man(a1-3)Man(b1-4)GlcNAc(b1-4)GlcNAc
Summary of the method: as §1

[17] = target: Gal(b1-4)GlcNAc(b1-2)Man(a1-3)[Gal(b1-4)GlcNAc(b1-2)Man(a1-6)]Man(b1-4)GlcNAc(b1-4)GlcNAc
Summary of the method: as §1

[18] = target: Gal(b1-4)GlcNAc(b1-2)Man(a1-3)[Gal(b1-4)GlcNAc(b1-2)Man(a1-6)]Man(b1-4)GlcNAc(b1-4)[Fuc(a1-6)]GlcNAc
Summary of the method: as §1

[19] = target: Gal(b1-4)GlcNAc(b1-2)Man(a1-3)[Gal(b1-4)GlcNAc(b1-2)Man(a1-6)][Gal(b1-4)GlcNAc(b1-4)]Man(b1-4)GlcNAc(b1-4)[Fuc(a1-6)]GlcNAc
Summary of the method: as §1

[20] = target: Gal(b1-4)GlcNAc(b1-2)Man(a1-3)[Gal(b1-4)GlcNAc(b1-2)Man(a1-6)][GlcNAc(b1-4)]Man(b1-4)GlcNAc(b1-4)[Fuc(a1-6)]GlcNAc
Summary of the method: as §1

[21] = target: Gal(b1-4)GlcNAc(b1-2)Man(a1-3)[GlcNAc(b1-2)Man(a1-6)]Man(b1-4)GlcNAc(b1-4)GlcNAc
Summary of the method: as §1

[22] = target: Gal(b1-4)GlcNAc(b1-2)Man(a1-3)[GlcNAc(b1-4)][Gal(b1-4)GlcNAc(b1-2)Man(a1-6)]Man(b1-4)GlcNAc(b1-4)GlcNAc
Summary of the method: as §1

[23] = target: Gal(b1-4)GlcNAc(b1-2)Man(a1-3)[Man(a1-6)]Man(b1-4)GlcNAc(b1-4)GlcNAc
Summary of the method: as §1

[24] = target: Gal(b1-4)GlcNAc(b1-2)Man(a1-6)Man(b1-4)GlcNAc(b1-4)GlcNAc
Summary of the method: as §1

[25] = target: Gal(b1-4)GlcNAc(b1-2)Man(a1-6)[GlcNAc(b1-2)Man(a1-3)]Man(b1-4)GlcNAc(b1-4)GlcNAc
Summary of the method: as §1

[26] = target: Gal(b1-4)GlcNAc(b1-2)Man(a1-6)[Man(a1-3)]Man(b1-4)GlcNAc(b1-4)GlcNAc
Summary of the method: as §1

[27] = target: Gal(b1-4)GlcNAc(b1-2)[Gal(b1-4)GlcNAc(b1-4)]Man(a1-3)[Gal(b1-4)GlcNAc(b1-2)Man(a1-6)]Man(b1-4)GlcNAc(b1-4)GlcNAc
Summary of the method: as §1

[28] = target: Gal(b1-4)GlcNAc(b1-2)[Gal(b1-4)GlcNAc(b1-4)]Man(a1-3)[Gal(b1-4)GlcNAc(b1-2)[Gal(b1-4)GlcNAc(b1-6)]Man(a1-6)]Man(b1-4)GlcNAc(b1-4)GlcNAc
Summary of the method: as §1

[29] = target: Gal(b1-4)GlcNAc(b1-2)[Gal(b1-4)GlcNAc(b1-4)]Man(a1-3)[GlcNAc(b1-4)][Gal(b1-4)GlcNAc(b1-2)Man(a1-6)]Man(b1-4)GlcNAc(b1-4)GlcNAc
Summary of the method: as §1

[30] = target: Gal(b1-4)GlcNAc(b1-2)[Gal(b1-4)GlcNAc(b1-4)]Man(a1-3)[GlcNAc(b1-4)][Gal(b1-4)GlcNAc(b1-2)[Gal(b1-4)GlcNAc(b1-6)]Man(a1-6)]Man(b1-4)GlcNAc(b1-4)GlcNAc
Summary of the method: as §1

[31] = target: Gal(b1-4)GlcNAc(b1-2)[Gal(b1-4)GlcNAc(b1-6)]Man(a1-6)[Gal(b1-4)GlcNAc(b1-2)Man(a1-3)]Man(b1-4)GlcNAc(b1-4)GlcNAc
Summary of the method: as §1

[32] = target: Gal(b1-4)GlcNAc(b1-2)[Gal(b1-4)GlcNAc(b1-6)]Man(a1-6)[Gal(b1-4)GlcNAc(b1-2)Man(a1-3)]Man(b1-4)GlcNAc(b1-4)[Fuc(a1-6)]GlcNAc
Summary of the method: as §1

[33] = target: Gal(b1-4)GlcNAc(b1-2)[Gal(b1-4)GlcNAc(b1-6)]Man(a1-6)[GlcNAc(b1-4)][Gal(b1-4)GlcNAc(b1-2)Man(a1-3)]Man(b1-4)GlcNAc(b1-4)GlcNAc
Summary of the method: as §1

[34] = target: Gal(b1-4)GlcNAc(b1-2)[Gal(b1-4)GlcNAc(b1-6)]Man(a1-6)[GlcNAc(b1-4)][Gal(b1-4)GlcNAc(b1-2)[Gal(b1-4)GlcNAc(b1-4)]Man(a1-3)]Man(b1-4)GlcNAc(b1-4)[Fuc(a1-6)]GlcNAc
Summary of the method: as §1

[35] = target: Gal(b1-4)GlcNAc(b1-3)Gal(b1-3)GalNAc
Summary of the method: as §1

[36] = target: Gal(b1-4)GlcNAc(b1-3)Gal(b1-3)GlcNAc
Summary of the method: as §1

[37] = target: Gal(b1-4)GlcNAc(b1-3)Gal(b1-4)Glc
Summary of the method: as §1

[38] = target: Gal(b1-4)GlcNAc(b1-3)Gal(b1-4)GlcNAc
Summary of the method: as §1

[39] = target: Gal(b1-4)GlcNAc(b1-3)Gal(b1-4)GlcNAc(b1-2)Man(a1-3)[Gal(b1-4)GlcNAc(b1-3)Gal(b1-4)GlcNAc(b1-2)Man(a1-6)]Man(b1-4)GlcNAc(b1-4)GlcNAc
Summary of the method: as §1

B1: Gal 7 (Homo sapiens) (protein)
chain: MSNVPHKSSLPEGIRPGTVLRIRGLVPPNASRFHVNLLCGEEGGSDAALHFNPRLDTSEVVFNSKEGGSWGREESGPGVPFGRGQPFEVLIIASDDGFKAVVGDAQYHHFRHRLPLARVRLVEVGGDVQLDSVRIF
**Q.** What does the source list for B1?
**A.** glycan array binding signal (z-score) [1]: -0.398; glycan array binding signal (z-score) [2]: -0.445; glycan array binding signal (z-score) (Gal(b1-3)GlcNAc6S): -0.422; glycan array binding signal (z-score) [3]: -0.383; glycan array binding signal (z-score) [4]: 0.195; glycan array binding signal (z-score) [5]: 1.68; glycan array binding signal (z-score) [6]: -0.454; glycan array binding signal (z-score) [7]: -0.452; glycan array binding signal (z-score) [8]: -0.149; glycan array binding signal (z-score) [9]: -0.429; glycan array binding signal (z-score) [10]: 0.399; glycan array binding signal (z-score) [11]: -0.354; glycan array binding signal (z-score) [12]: -0.589; glycan array binding signal (z-score) (Gal(b1-4)Gal): -0.356; glycan array binding signal (z-score) [13]: -0.282; glycan array binding signal (z-score) [14]: -0.54; glycan array binding signal (z-score) (Gal(b1-4)Glc): -0.398; glycan array binding signal (z-score) (Gal(b1-4)Glc6S): -0.449; glycan array binding signal (z-score) (Gal(b1-4)GlcNAc): 0.007; glycan array binding signal (z-score) [15]: -0.469; glycan array binding signal (z-score) (Gal(b1-4)GlcNAc(b1-2)Man): 0.218; glycan array binding signal (z-score) [16]: -0.422; glycan array binding signal (z-score) [17]: -0.525; glycan array binding signal (z-score) [18]: -0.067; glycan array binding signal (z-score) [19]: -0.301; glycan array binding signal (z-score) [20]: -0.374; glycan array binding signal (z-score) [21]: -0.518; glycan array binding signal (z-score) [22]: -0.353; glycan array binding signal (z-score) [23]: -0.132; glycan array binding signal (z-score) [24]: -0.36; glycan array binding signal (z-score) [25]: -0.228; glycan array binding signal (z-score) [26]: -0.576; glycan array binding signal (z-score) [27]: 0.975; glycan array binding signal (z-score) [28]: -0.184; glycan array binding signal (z-score) [29]: -0.403; glycan array binding signal (z-score) [30]: -0.385; glycan array binding signal (z-score) [31]: -0.379; glycan array binding signal (z-score) [32]: 1.23; glycan array binding signal (z-score) [33]: -0.422; glycan array binding signal (z-score) [34]: 0.183; glycan array binding signal (z-score) [35]: -0.471; glycan array binding signal (z-score) [36]: 0.626; glycan array binding signal (z-score) [37]: -0.482; glycan array binding signal (z-score) [38]: -0.636; glycan array binding signal (z-score) [39]: 3.67
